Results: PubChem BioAssay AID602310 (National Center for Advancing Translational Sciences (NCATS), 2012)
In all, about 410,000 compounds went through this assay and about 310 (0.076%) were called active. Inconclusive results, whose numbers are uncertain, are shown with a selection of clear calls. Calls come from the whole dose curve; as a rule, active = well fitted curve in the direction sought with a large enough effect; inconclusive = small, poorly fitted or top-dose-only effect; inactive = flat fitted curve, though single readings scatter. Potencies of inconclusive entries are doubtful fits and often do not repeat.

target: DNA dC->dU-editing enzyme APOBEC-3G (Homo sapiens) (UniProt Q9HC16); test: qHTS for Inhibitors of Vif-A3G Interactions: qHTS; details: HeLa A3G-eYFP + Vif (tagged APOBEC3G with the HIV-1 protein that degrades it), YFP fluorescence, overnight; series mostly up to 46.1 µM; note: nearly all actives have a fitted effect of over 60% in size
In short: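 HeLa cells stably expressing Vif and C-terminally eYFP-tagged A3G, seeded overnight at 37 deg C, then exposed to compound by pintool overnight at 37 deg C. Rise in yellow fluorescence (Ex 488/Em 500-530, Acumen) marks blocked Vif-driven A3G degradation.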
Potency is the fitted concentration of half-maximal effect; tags give direction and shape of the fitted curve.

UniProt Q9HC16, sequence (Q9HC16 whole entry, looked up): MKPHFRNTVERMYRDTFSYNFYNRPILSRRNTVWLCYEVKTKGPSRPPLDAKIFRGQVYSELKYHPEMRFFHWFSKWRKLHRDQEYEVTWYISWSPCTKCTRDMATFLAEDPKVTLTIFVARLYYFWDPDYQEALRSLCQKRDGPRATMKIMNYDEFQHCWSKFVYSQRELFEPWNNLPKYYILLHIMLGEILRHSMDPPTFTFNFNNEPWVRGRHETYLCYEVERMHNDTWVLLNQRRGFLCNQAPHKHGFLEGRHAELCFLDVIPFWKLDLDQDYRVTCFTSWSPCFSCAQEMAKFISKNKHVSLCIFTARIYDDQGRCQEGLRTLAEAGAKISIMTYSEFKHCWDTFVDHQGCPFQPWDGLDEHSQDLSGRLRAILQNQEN

SMILES | Potency
COc1cc(OC)c(NC2(c3ccccc3)C(=O)c3ccccc3C2=O)cc1Cl | inactive
O=[N+]([O-])c1ccc(N2N=C(c3ccco3)CC2c2ccccc2)cc1 (centres undefined) | inconclusive: 20 µM [inhibitor, single point]
COc1ccccc1-c1cc(SC)c(C#N)c(=O)o1 | inconclusive: 35.5 µM [inhibitor, single point]
CSC1=NC(=O)/C(=C/c2ccc(SC)cc2)S1 | inactive
O=[N+]([O-])c1c(NCCO)cc(Sc2nc3ccccc3s2)c2nonc12 | inconclusive: 35.5 µM [inhibitor, single point]
COc1ccc(NS(=O)(=O)c2cc(NC(=O)Cn3cnc4c3c(=O)n(C)c(=O)n4C)ccc2C)cc1 | inconclusive: 28.2 µM [inhibitor, single point]
CCN(C(=O)c1coc(=O)c(Br)c1)c1ccc2c(c1)OCO2 | inconclusive: 22.4 µM [inhibitor, single point]
COc1cc(/C=C(\C#N)c2nc3ccccc3[nH]2)cc(Cl)c1OCc1ccccc1Cl | inconclusive: 11.2 µM [inhibitor, partial curve]
COc1cccc(Cn2c(=O)c3ccccc3n3nc(C)cc23)c1 | inconclusive: 35.5 µM [inhibitor, single point]
O=C(CCCCn1c(=O)c2ccccc2n(Cc2ccc(F)cc2)c1=O)NCc1ccco1 | inconclusive: 6.31 µM [inhibitor, full curve]
COc1ccc(CNCC(=O)Nc2ccccc2-n2cccc2)cc1 | inconclusive: 7.94 µM [inhibitor, partial curve]
Cc1cc(C)nc(Sc2ncnc(N)c2[N+](=O)[O-])n1 | inconclusive: 35.5 µM [inhibitor, partial curve, poor fit]
O=C(Nc1ccccc1Br)c1ccccc1-c1ccccc1 | inconclusive: 3.98 µM [inhibitor, full curve]
COc1ccccc1NC(=O)Cc1noc(CSc2nnc(C)n2C)n1 | inactive
Nc1c(Cl)cc(C2=NCCn3nc4cc(C(F)(F)F)ccc4c32)cc1Cl | inconclusive: 22.4 µM [inhibitor, single point]
CCCCc1nc2cc(C(=O)N3CCCCC3CCNC(C)=O)ccc2o1 (centres undefined) | inactive
O=C1OCC2=C1C(c1ccc(Cl)cc1)c1cc3c(cc1O2)OCO3 (centres undefined) | inconclusive: 3.55 µM [inhibitor, full curve, poor fit]
Cc1c(Cc2ccccc2)sc(NC(=O)/C=C/c2cccc3ccccc23)c1C(N)=O | inconclusive: 1.26 µM [inhibitor, full curve, poor fit]
CC(=O)c1cccc(Nc2nc(-c3sc(C)nc3C)cs2)c1 | inconclusive: 35.5 µM [inhibitor, partial curve, poor fit]
CCC(=O)N1c2ccccc2CC1C(=O)NCCN1CCN(c2cccc(C(F)(F)F)c2)CC1 (centres undefined) | inactive
CC(C)Oc1ccc(F)cc1-c1cc(C(=O)Nc2ccc(C(C)(C)C)cc2)[nH]n1 | inconclusive: 25.1 µM [inhibitor, single point]
CC(C)C[C@H]1CNC(=S)N1C[C@H]1CCCN1C[C@H](CC(C)C)N1C[C@H](Cc2ccc(O)cc2)N(CC2CCCCCC2)C1=S | inactive

SMILES | Potency
CC(NC(=O)c1ccc([N+](=O)[O-])o1)C1CC2CCC1C2 (centres undefined) | inconclusive: 15.8 µM [inhibitor, single point]
COC(=O)C1=C(N)Oc2cc(N(C)C)ccc2C1c1ccccc1OC (centres undefined) | inconclusive: 2.82 µM [inhibitor, partial curve, poor fit]
Cc1cc2cc(C(c3nnnn3Cc3ccco3)N3CCc4ccccc43)c(=O)[nH]c2cc1C (centres undefined) | inactive
COc1ccc(CCC(=O)O)cc1 | inactive
C=C(C)COc1ccc(-c2ncncc2-c2ccccc2OC)c(O)c1 | inconclusive: 28.2 µM [inhibitor, single point]
O=C(NCCCN1CCOCC1)C(=O)N/N=C/c1c2ccccc2cc2ccccc12 | inconclusive: 3.98 µM [inhibitor, full curve, poor fit]
CSc1nnc(NC(=O)c2nc(S(=O)(=O)Cc3ccccc3F)ncc2Cl)s1 | inactive
O=C(O)CCCN1C(=O)/C(=C\C(Cl)=C\c2ccccc2)SC1=S | inconclusive: 7.94 µM [inhibitor, partial curve]
CC(NC(=O)/C=C/c1ccco1)c1nc2ccccc2n1Cc1cccc(Cl)c1 (centres undefined) | inconclusive: 15.8 µM [inhibitor, single point]
C=CCN(C(=O)c1ccccc1)c1ccc(OC)cc1 | inconclusive: 11.2 µM [inhibitor, partial curve, poor fit]
CN1C(=S)N(c2cccnc2)C(=O)/C1=C\c1ccc(C(C)(C)C)cc1 | inconclusive: 25.1 µM [inhibitor, partial curve, poor fit]
CSc1nc(C)c2c(n1)N(c1ccc(F)cc1)CC2 | inactive
Cc1ccc(S(=O)(=O)N2CCCCC2)cc1NC(=O)Cn1ncc(Cl)c(Cl)c1=O | inconclusive: 17.8 µM [inhibitor, partial curve, poor fit]
COc1cc2c(cc1OC)C(C)N(C(=O)c1ccc(Br)o1)CC2 (centres undefined) | inconclusive: 35.5 µM [inhibitor, partial curve, poor fit]
C=CCN1C(=O)C2(NC(=O)c3ccccc3N2)c2ccccc21 (centres undefined) | inconclusive: 25.1 µM [inhibitor, single point]
O=C(Nc1nc2c(F)cc(F)cc2s1)c1ccc([N+](=O)[O-])o1 | inconclusive: 3.16 µM [inhibitor, single point]
CCOC(=O)N1CCN(Cc2nc3cc(NC(=O)CC(C)C)ccc3n2CC)CC1 | inconclusive: 11.2 µM [inhibitor, partial curve, poor fit]
Cc1ccc(CN2C(=O)C(=O)c3cc(C)ccc32)cc1 | inconclusive: 35.5 µM [inhibitor, single point]
COc1ccc(-n2c(O)c(/C=N/NS(=O)(=O)c3cccc([N+](=O)[O-])c3)c3ccccc3c2=O)cc1OC | inconclusive: 3.98 µM [inhibitor, partial curve, poor fit]
Cc1cccc(NC(=O)c2ccc(COc3ccccc3)o2)n1 | inactive
Cc1ccc(NC(=O)CN2C(=O)S/C(=C\c3cc(C)n(C)c3C)C2=O)cc1 | inconclusive: 31.6 µM [inhibitor, single point]
O=C(O)CCn1cc(/C=C/C(=O)c2ccc(Cl)cc2)c(-c2cccc(Br)c2)n1 | inconclusive: 15.8 µM [inhibitor, single point]

SMILES | Potency
COc1ccc(C=C2SC(=S)NC2=O)c(OC)c1OC | inconclusive: 15.8 µM [inhibitor, single point]
C=CCOc1cccc(/C=N/NC(=O)C(=O)NCc2ccco2)c1 | inconclusive: 3.55 µM [inhibitor, single point]
Cn1c(CCN2CCCC2)nc2cc(NS(=O)(=O)c3ccc(Cl)cc3)ccc21 | inconclusive: 12.6 µM [inhibitor, partial curve]
CCCNC(=O)COC(=O)c1ccccc1C(=O)c1ccc(Cl)c([N+](=O)[O-])c1 | inconclusive: 35.5 µM [inhibitor, single point]
Cc1ccc(OCCCCN2CCc3ccccc3C2)c(C)c1 | inactive
CCN(CC)S(=O)(=O)c1ccc(O)c(NC(=O)c2cc(-c3cc(OC)c(OC)c(OC)c3)nc3ccccc23)c1 | inconclusive: 35.5 µM [inhibitor, single point]
N#C/C(=C\c1ccc(Cl)c([N+](=O)[O-])c1)c1ccccn1 | inconclusive: 35.5 µM [inhibitor, single point]
O=C(Nc1ccc2nc3n(c(=O)c2c1)CCCC3)c1cc([N+](=O)[O-])ccc1F | inactive
Nc1nc(O)c(Sc2ccccc2[N+](=O)[O-])c(=O)[nH]1 | inactive
OC(C#CCCN1CCCCC1)(c1ccccc1)C1CCCCC1 (centres undefined) | inactive
Cc1ccccc1C1C(C#N)=C2N=C(N)c3c(sc4c3CCCCC4)N2C2=C1C(=O)CCC2 (centres undefined) | inconclusive: 25.1 µM [inhibitor, single point]
C=CCOc1ccccc1C(=O)/C=C1/C(=O)Nc2ccccc21 | inconclusive: 28.2 µM [inhibitor, single point]
Cc1ccc(/C=C2\CCC3=C2OC(N)=C(C#N)C3c2ccc(C)cc2)cc1 (centres undefined) | inconclusive: 14.1 µM [inhibitor, partial curve, poor fit]
O=[N+]([O-])c1ccccc1SNc1ccccc1 | inconclusive: 14.1 µM [inhibitor, partial curve, poor fit]
COc1ccc(/C=N/NC(=O)c2ccn[nH]2)cc1COc1ccc([N+](=O)[O-])c(C)c1 | inconclusive: 35.5 µM [inhibitor, partial curve, poor fit]
O=C(Nc1ccccc1)Nc1cc([N+](=O)[O-])ccc1F | inactive
COc1ccccc1OCC(=O)N/N=C/C=C/c1ccc([N+](=O)[O-])o1 | inconclusive: 15.8 µM [inhibitor, partial curve, poor fit]
Cc1ccc(-c2nnc(Nc3ccc(O)cc3)c3ccccc23)cc1S(=O)(=O)NC(C)(C)CO | inconclusive: 35.5 µM [inhibitor, single point]
COc1ccc2nc(NC(=O)c3nc(S(=O)(=O)Cc4ccc(C)cc4)ncc3Cl)sc2c1 | inconclusive: 15.8 µM [inhibitor, single point]
O=C(CNC(=O)OCc1ccccc1)NCC(=O)N1CCCC1C(=O)OCc1ccccc1 (centres undefined) | inactive
